PubChem BioAssay (NCI)
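Compound exposure: 48 hours, 5 concentrations, 96-well plates. The concentration for 50% growth inhibition is given as GI50.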 Certain results were filed several times, with different values. Only these are listed. The source may hold further records. For some assays here: The tests behind the records often covered other concentration ranges, not given here; a value can be the end of its range. Records carry a tag for their origin. Letters hold for one entry only. For some assays here: The values listed for one entry are repeated measurements across runs, samples, wells, individuals or studies.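 The concentration for full growth arrest is given as TGI.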

Legend:
Test in all cases: NCI anticancer screen, dose series, 48 h
NCI-H23 lung = tested on: NCI-H23 lung
DU-145 prostate = tested on: DU-145 prostate
MALME-3M melanoma = tested on: MALME-3M melanoma
BT-549 breast = tested on: BT-549 breast
SW-620 colon = tested on: SW-620 colon
EKVX NSCLC = tested on: EKVX NSCLC
MCF7 breast = tested on: MCF7 breast
IGROV1 ovarian = tested on: IGROV1 ovarian
OVCAR-8 ovarian = tested on: OVCAR-8 ovarian
HL-60(TB) leukemia = tested on: HL-60(TB) leukemia
HCT-15 colon = tested on: HCT-15 colon
RPMI-8226 leukemia = tested on: RPMI-8226 leukemia
SF-268 CNS = tested on: SF-268 CNS
A549 NSCLC = tested on: A549 NSCLC
SK-MEL-2 melanoma = tested on: SK-MEL-2 melanoma
CAKI-1 renal = tested on: CAKI-1 renal
SK-MEL-5 melanoma = tested on: SK-MEL-5 melanoma
SNB-75 CNS = tested on: SNB-75 CNS
NCI/ADR-RES ovarian = tested on: NCI/ADR-RES ovarian
LOX IMVI melanoma = tested on: LOX IMVI melanoma
NCI-H522 lung = tested on: NCI-H522 lung
KM20L2 colon = tested on: KM20L2 colon
SNB-78 CNS = tested on: SNB-78 CNS
UACC-62 melanoma = tested on: UACC-62 melanoma
HS 578T breast = tested on: HS 578T breast
SK-OV-3 ovarian = tested on: SK-OV-3 ovarian
A498 renal = tested on: A498 renal
SNB-19 CNS = tested on: SNB-19 CNS
K-562 leukemia = tested on: K-562 leukemia
KM12 colon = tested on: KM12 colon
M14 melanoma = tested on: M14 melanoma
COLO 205 colon = tested on: COLO 205 colon
MOLT-4 leukemia = tested on: MOLT-4 leukemia
786-0 renal = tested on: 786-0 renal
RXF 393 renal = tested on: RXF 393 renal
DLD-1 colon = tested on: DLD-1 colon
OVCAR-3 ovarian = tested on: OVCAR-3 ovarian
UACC-257 melanoma = tested on: UACC-257 melanoma
HT29 colon = tested on: HT29 colon
OVCAR-4 ovarian = tested on: OVCAR-4 ovarian
NCI-H460 lung = tested on: NCI-H460 lung
SF-295 CNS = tested on: SF-295 CNS
SK-MEL-28 melanoma = tested on: SK-MEL-28 melanoma
HCC-2998 colon = tested on: HCC-2998 colon
M19-MEL melanoma = tested on: M19-MEL melanoma
HOP-92 NSCLC = tested on: HOP-92 NSCLC
SF-539 CNS = tested on: SF-539 CNS
HCT-116 colon = tested on: HCT-116 colon
SN12C renal = tested on: SN12C renal
SR leukemia = tested on: SR leukemia

COc1cc([C@@H]2c3cc4c(c(O)c3C[C@H]3COC(=O)[C@@H]32)OCO4)cc(OC)c1OC
GI50 (NCI-H23 lung): 0.0845 nM, 1.25 nM [sample A, 1 test] and 643 nM [sample A, mean of 2 tests] and 273 nM [sample B, mean of 2 tests] | TGI (NCI-H23 lung): 1.5 nM, 5.29 nM [sample A, 1 test] and 91.3 µM [sample A, mean of 2 tests] and > 100 µM [sample B, mean of 2 tests] | GI50 (DU-145 prostate): 2.09 nM [sample A, 1 test] and 294 nM [sample B, mean of 2 tests] | TGI (DU-145 prostate): 6 nM, < 24.1 nM [sample A] and 4.77 µM [sample B] | TGI (MALME-3M melanoma): 1.5 nM, 120 µM, 156 µM [sample A] and > 100 µM [sample B] | GI50 (BT-549 breast): 2.37 nM, 56.5 µM [sample A, 1 test] and 390 nM [sample B, mean of 2 tests] | TGI (BT-549 breast): 375 nM, 228 µM [sample A, 1 test] and > 90.8 µM [sample B, mean of 2 tests] | TGI (SW-620 colon): 1.5 nM, 150 µM, > 241 µM [sample A] and > 100 µM [sample B] | TGI (EKVX NSCLC): 23.8 µM, > 241 µM [sample A] and > 100 µM [sample B] | TGI (MCF7 breast): 1.5 nM, 10.2 µM, 113 µM [sample A] and > 100 µM [sample B] | TGI (IGROV1 ovarian): 1.5 nM, 140 µM, > 241 µM [sample A] and > 100 µM [sample B] | GI50 (OVCAR-8 ovarian): 1.83 nM [sample A, 1 test] and 271 nM [sample B, mean of 2 tests] | TGI (OVCAR-8 ovarian): 5.83 nM, 85.5 µM [sample A] and > 100 µM [sample B] | TGI (HL-60(TB) leukemia): 103 nM, 2.15 µM, > 241 µM | TGI (HCT-15 colon): 1.5 nM, 7.46 nM, 15 µM [sample A] and > 100 µM [sample B] | GI50 (RPMI-8226 leukemia): 0.993 nM [1 test] and 24.1 nM [mean of 2 tests] | TGI (SF-268 CNS): 1.5 nM, 8.57 nM, 24.6 µM, > 241 µM [sample A] and > 100 µM [sample B] | TGI (A549 NSCLC): 1.5 nM, 150 µM, > 241 µM [sample A] and > 100 µM [sample B] | TGI (SK-MEL-2 melanoma): 0.464 nM, 103 µM, 91.1 µM [sample A] and > 100 µM [sample B] | TGI (CAKI-1 renal): 1.5 nM, 189 nM, 132 µM [sample A] and > 100 µM [sample B] | TGI (SK-MEL-5 melanoma): 0.551 nM, 348 nM [sample A, 1 test] and 1.02 µM [sample A, mean of 2 tests] and 466 nM [sample B, mean of 2 tests] | TGI (SNB-75 CNS): 956 nM, 15 µM, 156 µM [sample A] and > 100 µM [sample B] | GI50 (NCI/ADR-RES ovarian): 0.0232 nM, 0.29 nM [sample A, 1 test] and 203 nM [sample B, 1 test] | TGI (NCI/ADR-RES ovarian): 0.112 nM, 1.33 nM [sample A, 1 test] and > 100 µM [sample B, 1 test] | TGI (LOX IMVI melanoma): 0.15 nM, 3.42 nM, 22.1 µM, 150 µM, > 241 µM [sample A] and > 100 µM [sample B] | TGI (NCI-H522 lung): 0.0724 nM, 0.391 nM, 76.2 nM [sample A] and > 100 µM [sample B] | GI50 (KM20L2 colon): 1.5 nM [1 test] and 30.8 nM [mean of 4 tests] | TGI (SNB-78 CNS): 1.5 nM and 133 µM | TGI (UACC-62 melanoma): 1.5 nM, 246 nM, 129 µM [sample A, 1 test] and 150 µM [sample A, mean of 5 tests] and > 100 µM [sample B, 1 test] | GI50 (HS 578T breast): 0.311 nM [sample A, 1 test] and 585 nM [sample B, 1 test] | TGI (HS 578T breast): 0.936 nM, 68.2 µM [sample A] and > 100 µM [sample B] | TGI (SK-OV-3 ovarian): 1.5 nM [sample A, 1 test] and 274 nM [sample A, mean of 2 tests] and 143 µM [sample A, mean of 3 tests] and > 100 µM [sample B, mean of 2 tests] | GI50 (A498 renal): 0.563 nM [sample A, 1 test] and 305 nM [sample B, mean of 2 tests] | TGI (SNB-19 CNS): 1.5 nM, 6.96 µM, > 241 µM [sample A] and > 100 µM [sample B] | TGI (K-562 leukemia): 0.643 nM, 59.5 µM, > 241 µM [sample A] and > 100 µM [sample B] | TGI (KM12 colon): 0.332 nM, 23.8 µM, < 24.1 nM | GI50 (M14 melanoma): 1.54 nM [sample A, 1 test] and 103 nM [sample B, mean of 2 tests] | TGI (COLO 205 colon): 1.5, 122, 12.9, 25.7, 24.4 nM [sample A] and 1.29 µM [sample B] | TGI (MOLT-4 leukemia): 150 nM, > 241 µM [sample A] and > 58.3 µM [sample B] | GI50 (786-0 renal): 4.65 nM [sample A, 1 test] and 413 nM [sample B, mean of 2 tests] | TGI (RXF 393 renal): 1.7 µM [sample A, mean of 2 tests] and 122 nM [sample A, mean of 4 tests] and > 100 µM [sample B, 1 test] | TGI (DLD-1 colon): 1.5 nM and 150 µM | TGI (OVCAR-3 ovarian): 1.5 nM, 6.52 nM, 72.1 nM, 1.27 µM [sample A] and 282 nM [sample B] | TGI (UACC-257 melanoma): 239 µM [sample A, mean of 2 tests] and 8.44 µM [sample A, mean of 4 tests] and > 100 µM [sample B, 1 test] | TGI (HT29 colon): 994 nM [sample A, 1 test] and 17.9 µM [sample A, mean of 2 tests] and 7.89 µM [sample B, mean of 2 tests] | TGI (OVCAR-4 ovarian): 22.8 µM, > 241 µM [sample A] and > 100 µM [sample B] | TGI (NCI-H460 lung): 1.5 nM, 15.4 µM, 34.8 µM | TGI (SF-295 CNS): 1.5 nM, 2.37 nM [sample A, 1 test] and > 100 µM [sample B, 1 test] | TGI (SK-MEL-28 melanoma): 1.5 nM, > 241 µM [1 test] and 150 µM [mean of 5 tests] | TGI (HCC-2998 colon): 6.96 µM, < 24.1 nM [sample A] and > 100 µM [sample B] | TGI (M19-MEL melanoma): 1.5 nM and 150 µM | TGI (HOP-92 NSCLC): 134 nM, 48.3 µM [sample A] and > 100 µM [sample B] | TGI (SF-539 CNS): 0.098 nM, 11.7 nM, < 24.1 nM [sample A, 1 test] and 300 nM [sample B, mean of 2 tests] | TGI (HCT-116 colon): 1.5 nM, 25.8 nM, 23.8 µM, < 24.1 nM [sample A] and > 100 µM [sample B] | TGI (SN12C renal): 1.5 nM, 1.5 µM, > 241 µM [sample A] and > 100 µM [sample B] | TGI (SR leukemia): 7.99 µM, > 241 µM [sample A] and > 100 µM [sample B]
